Source: PubChem BioAssay AID504845 (National Center for Advancing Translational Sciences (NCATS), 2011)
Screen size: about 390,000 compounds; about 150 (0.038%) were called active. The shares of active, inactive and inconclusive entries below differ from those in the screen. The call rests on the fitted dose curve; in most records, active means well fitted inhibition curve with a large enough effect; inconclusive means small, poorly fitted or top-dose-only effect; inactive means no such curve, though single readings can be large or run the other way. Potencies of inconclusive entries are doubtful fits and often do not repeat.

Target: Regulator of G-protein signaling 4 (Homo sapiens) (UniProt P49798)
Assay: Inhibitors of Regulator of G Protein Signaling (RGS) 4: qHTS; further: nearly all actives have a fitted effect of over 75% in size
Details: Transcreener GDP fluorescence polarization, RGS4-accelerated GTP hydrolysis; series mostly up to 114 µM; activity change, negative = inhibition: at the top concentration
In short: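 MLSMR compounds (23 nl, pin-transferred) preincubated 10 min at room temperature with a 500nM (2x) first reagent, then RGS4 at 900nM (2x) plus Transcreener GDP mix added; fluorescence polarization (620/688 nm) read before and after 90 min at 30 °C.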
On the % scale 0 is the no-effect control and ±100 the full control effect; potency means the concentration at half of the fitted maximal effect; tags describe the fitted curve by direction and shape.

Chain of UniProt P49798 (P49798 whole entry, looked up): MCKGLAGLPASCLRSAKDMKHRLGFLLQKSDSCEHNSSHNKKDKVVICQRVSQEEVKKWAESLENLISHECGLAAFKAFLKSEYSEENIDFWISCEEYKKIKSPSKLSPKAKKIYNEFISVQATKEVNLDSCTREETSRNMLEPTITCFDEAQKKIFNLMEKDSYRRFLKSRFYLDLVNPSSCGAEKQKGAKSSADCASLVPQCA

SMILES	Potency	activity change, negative = inhibition
O=C1Nc2ccccc2C1(O)C/C(=N/O)c1ccccc1 (stereo not given)	inconclusive: 31.6 µM [inhibitor, full curve, poor fit]	–
O=C(CN1C(=O)COc2ccccc21)NCCN1CCC(Cc2ccccc2)CC1	–	inactive: -3.73%
COC(=O)c1ccc(C(=O)OC)nc1	inconclusive: 89.1 µM [inhibitor, single point]	–
Cc1cc(/C=C(/C#N)c2nc3ccccc3[nH]2)c(C)n1-c1cc(C(=O)O)cc(C(=O)O)c1	–	inactive: 8.95%
COc1cccc(N2CCN(c3ncnc4c3[nH]c3ccc(F)cc34)CC2C)c1 (stereo not given)	–	inactive: -1.87%
COc1ccccc1NC(=O)C1=C(C)NC(=O)NC1c1cccs1 (stereo not given)	inconclusive: 100 µM [inhibitor, partial curve, poor fit]	–
Nc1nc(NCCOCCO)nc(NC2CCCCC2)c1[N+](=O)[O-]	–	inactive: 12.4%
O=C(NCCNc1ccc([N+](=O)[O-])cc1)c1ccco1	inconclusive: 79.4 µM [inhibitor, partial curve, poor fit]	–
CCN1CCOC(=O)C1CC(=O)Nc1cc(Cl)ccc1C (stereo not given)	–	inactive: -45.9%
COc1ccc(Cl)cc1C(=O)NCCc1ccc(S(=O)(=O)NC(=O)NC2CCCCC2)cc1	inconclusive: 2.12 µM [inhibitor, partial curve, poor fit]	–
COC(=O)c1ccc(NC(=O)Nc2ccc(F)cc2F)cc1	–	inactive: -2.35%
CC#C[C@]1(O)CC[C@H]2[C@@H]3CCC4=CC(=O)CCC4=C3[C@@H](c3ccc(N(C)C)cc3)C[C@@]21C	inconclusive: 15 µM [inhibitor, partial curve, poor fit]	–
O=S(=O)(c1ccc(Oc2ccc(Br)cc2)cc1)N1CCOCC1	–	inactive: 24.3%
CN(Cc1ccsc1)C(=O)CCc1nnc(Cc2c[nH]c3ccccc23)o1	inconclusive: 89.1 µM [inhibitor, partial curve, poor fit]	–
COc1ccc(/C=N\NC(=O)c2ccc(-c3ccccc3)cc2)cc1COC(C)=O	–	inactive: -28.9%
c1ccc(Cn2nnc3c(N4CCOCC4)ncnc32)cc1	–	inactive: 5.68%
Cc1cccc(N2CCN(C(=S)Nc3ccc4nc5n(c(=O)c4c3)CCCCC5)CC2)c1C	–	inactive: 23.6%
COc1ccc2oc(C)c(C(=O)c3ccccc3)c2c1	–	inactive: 17.2%
O=C(c1ccc(CS(=O)c2ccccc2Cl)o1)N1CCN(c2ccccn2)CC1 (stereo not given)	inconclusive: 79.4 µM [inhibitor, single point]	–
O=C1CSC(=S)N1Cc1cccs1	inconclusive: 100 µM [inhibitor, partial curve, poor fit]	–
COc1cccc(C(C(=O)Nc2ccc(F)cc2)N(C(=O)Cn2nnc3ccccc32)C2CC2)c1 (stereo not given)	–	inactive: 10.4%
CCCCOc1cc(C)nc(NCc2ccccc2)n1	–	inactive: -1.88%
O=C(Nc1ccncc1NC(=O)c1cccc([N+](=O)[O-])c1)c1cccc([N+](=O)[O-])c1	inconclusive: 79.4 µM [inhibitor, partial curve, poor fit]	–

SMILES	Potency	activity change, negative = inhibition
COc1cc(C(=O)N2CCCc3ccccc32)c([N+](=O)[O-])cc1OC	–	inactive: 25.4%
C=CCn1c(C)cc(C(=O)COC(=O)/C=C/c2c(C)nn(C3CCS(=O)(=O)C3)c2Cl)c1C (stereo not given)	inconclusive: 100 µM [inhibitor, single point]	–
COc1cccc(CC(=O)Nc2ccc(S(=O)(=O)Nc3nc(C)cc(C)n3)cc2)c1	inconclusive: 79.4 µM [inhibitor, partial curve, poor fit]	–
O=c1[nH]c2ccccc2c2oc(CCl)nc12	inconclusive: 50.1 µM [inhibitor, partial curve, poor fit]	–
O=C1C=CC(=O)N1c1cccc(-c2ccccc2)c1	inconclusive: 28.2 µM [inhibitor, full curve, poor fit]	–
O=C(COc1ccc(Cl)cc1)NCc1ccc(F)cc1	inconclusive: 79.4 µM [inhibitor, partial curve, poor fit]	–
CCOc1ccc(N2C(=O)CC(C(C)c3ccccc3)C2=O)cc1 (stereo not given)	–	inactive: -10.5%
CCCOC(=O)Nc1cc(OC)c(Cl)cc1OC	inconclusive: 89.1 µM [inhibitor, single point]	–
CCCCn1c(=S)[nH]c2cc(S(=O)(=O)N3CCOCC3)ccc21	inconclusive: 89.1 µM [inhibitor, single point]	–
CCOc1ccc(S(=O)(=O)N/N=C(\C)c2ccc(OC)cc2OC)cc1	inconclusive: 31.6 µM [inhibitor, partial curve, poor fit]	–
Cc1noc(C)c1NC(=O)Nc1cccc2c1O[C@@H](CN(C)C(=O)Nc1ccc3c(c1)OCO3)[C@@H](C)CN([C@H](C)CO)C2=O	–	inactive: -3.52%
N[C@@H](CO)c1nnc([C@H](CC(=O)O)NC(=O)C2CCNCC2)o1	–	inactive: -26.5%
CC(=O)Nc1ccc(Nc2ccc(S(=O)(=O)C(F)(F)F)cc2[N+](=O)[O-])cc1	inconclusive: 89.1 µM [inhibitor, single point]	–
S=C(NCC1CCCO1)Nc1ccc(Cl)c(Cl)c1 (stereo not given)	inconclusive: 31.6 µM [inhibitor, full curve, poor fit]	–
CC(=NNc1nc2ccccc2o1)c1cc2ccccc2cn1	–	inactive: -17.5%
CCCNC(=O)c1onc(CSc2ccc(Cl)cc2)c1C(=O)NC(C)C	inconclusive: 79.4 µM [inhibitor, partial curve, poor fit]	–
CC(C)C(=O)Nc1cccc(C(=O)NCCc2ccc(S(N)(=O)=O)cc2)c1	inconclusive: 89.1 µM [inhibitor, single point]	–
N#C/C(=C\c1ccc([N+](=O)[O-])o1)C(=O)Nc1ccc(F)cc1	inconclusive: 28.2 µM [inhibitor, full curve, poor fit]	–
CCn1cnc2cc(NC(=O)c3ccc(C)cc3)ccc21	–	inactive: -11.1%
COCCCNC(=O)C(C)N1c2cccc3cccc(c23)S1(=O)=O (stereo not given)	inconclusive: 10 µM [inhibitor, full curve, poor fit]	–
COCCNC(=O)CSc1nc2nn(-c3ccccc3)c(=O)c-2c2n1CCCCC2	inconclusive: 50.1 µM [inhibitor, partial curve, poor fit]	–
Cc1ccc(NCc2nnc(SCC(N)=O)n2CC2CCCO2)c(C)c1 (stereo not given)	inconclusive: 70.8 µM [inhibitor, single point]	–
